Measurements: paper PMC12136788
This is one part of the list.

T1: UNK ZnF1-3 (human, UniProt Q9C0B0 31-174)
T1 sequence: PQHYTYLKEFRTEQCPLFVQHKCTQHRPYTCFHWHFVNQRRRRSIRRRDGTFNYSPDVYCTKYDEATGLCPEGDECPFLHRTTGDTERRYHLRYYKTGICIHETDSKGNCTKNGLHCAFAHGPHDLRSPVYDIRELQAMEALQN

B1: chr4:76721835:76721836:+_ENSG00000138768_ENST00000264904|hu_mus|hu_hu_hu_mus_True|1_58 (ssRNA)
RNA: GGGAGUUCUACAGUCCGACGAUCGUUUGGCUGGGGUUUCUGAGACGCUCUGGAAUAUAACUCAUGUUUGCUAAUAAUCCUAGUUUCCUCUAUGAAAUUCUCUUUGCCAAUCCUCUUCUCUAUUAGUUGCUUUAGUUCUCUUUCCAACAGAGGAUUGAGCAUCA
B2: 45837776_45839329_1056_CDS_ENSMUSG00000036932_ENSMUST00000037349|mouse|control|control (ssRNA)
RNA: GGGAGUUCUACAGUCCGACGAUCCCGAGAGAUCUUCUCCAAGGCUCUAAAAUCUCCAAUCUUCCUGAAAAGUGUUGUUCUACUCUUCACCUCUGCUCCAGCCCUAUCGAUGGCAGACAGACUUCUUGGAGUGCCUCCCGUUGCCAACAGAGGAUUGAGCAUCA
B3: chr2:237995794:237995795:+_ENSG00000198612_ENST00000392008|hu_mus|FALSE|FALSE (ssRNA)
RNA: GGGAGUUCUACAGUCCGACGAUCUAUCCUCUUCCACAGAUAUCUUGCAUUAUUCAUGUCGUUCUGGAGCAAGUACAAAGCUAGAAGCUGACCGUACACUGGCGGUGUGGCAAUUCCUCCAGGAGCCUCGAGUUCCUGGUUCUCCAACAGAGGAUUGAGCAUCA
B4: chr6:51417264:51417265:-_ENSMUSG00000004980_ENSMUST00000090002|mus_hu|motif|central (ssRNA)
RNA: GGGAGUUCUACAGUCCGACGAUCAAGAGCUUACGGAACUGUUCCUUUUCUCUCUUUUUCCUCUCCAAAGGAACAGUUUCGGAAGUUUUCUCCAUCGCGGACUCAGUCGCUUCAGCCCGAUUUCCCGCAGCCGAGCGAGAUGAGCAACAGAGGAUUGAGCAUCA
B5: chr2:179515052:179515053:+_ENSMUSG00000000305_ENSMUST00000000314|mus_hu|mus_mus_mus_hu_False|28_58 (ssRNA)
RNA: GGGAGUUCUACAGUCCGACGAUCGCUGUCCCAUGCAGUCACCGUGAACGCCACCUGCUCGGAGGGGACCUGCAGCUCCCUAGUGGCGAAGACUGUCCCAUCUGCCCCGACUUUGAAGUCCAUGCUGUUGGUCUCAUAUUGUGUCAACAGAGGAUUGAGCAUCA
B6: chr7:148072430:148072431:+_ENSMUSG00000025487_ENSMUST00000026560|mus_mus|motif|central (ssRNA)
RNA: GGGAGUUCUACAGUCCGACGAUCAAAAGUAAGAGCCACAUUAGGAUCGGUCAUCUGUCUAACCACAUGGAGAAUUAUUUCGGCCAGGGACAGAGGGUUUACCCUGUGCUCAAACUCACUGAUGAAGUUUUCAUAAAGCUUAAUCAACAGAGGAUUGAGCAUCA
B7: chr3:64004597:64004598:-_ENSG00000163636_ENST00000295901|hu_mus|FALSE|FALSE (ssRNA)
RNA: GGGAGUUCUACAGUCCGACGAUCAGUGUAAGUCACAAAUGUCUUGUAAUCCAUGAGCUCAUACGAUGUAAACGUAGAAACAGUGUCGAGAAAGAGCUCUGCUGCCUGUUUGAAGUCACGGAUAGCCACACAAUAUAAGCCCUGCAACAGAGGAUUGAGCAUCA
B8: chr14:102516957:102516958:+_ENSG00000197102_ENST00000360184|hu_mus|FALSE|FALSE (ssRNA)
RNA: GGGAGUUCUACAGUCCGACGAUCCCAUCAACCCUUCCACACCGUUAAGGAUGAAUGAAGGUUAAAUAUUGGGAGUUUCCUAUUCCAGAAAGAGGACUGGAGAAAAGUCUAGCUUUACUCAGUGCACAGAACGGCAACUCCACGCAACAGAGGAUUGAGCAUCA
B9: chr12:85022504:85022505:+_ENSMUSG00000010608_ENSMUST00000048155|mus_hu|FALSE|FALSE (ssRNA)
RNA: GGGAGUUCUACAGUCCGACGAUCCACAAGACCAAUUUUCUUGGCUUCUGUUUCAUAUAUCAAUAAUCUCCACAUUUUGACUAUAAAAACUUCUGCUUCUUCAUCAAGUACCAUGGCAACAUCAUCUAAAAUGCUCUGGGGUGACAACAGAGGAUUGAGCAUCA
B10: chr15:100647222:100647223:+_ENSMUSG00000023032_ENSMUST00000023776|mus_mus|FALSE|FALSE (ssRNA)
RNA: GGGAGUUCUACAGUCCGACGAUCGGGCCAAAAAACUCAUGAUAGUUUUGGAACAUAGAAAAUCACACAUAUACUUUUAAACUAAGUAUCCAAAGUGAUGCCACCGCUUACAGCUCAUUUCUUCGUGUGGCUUUUACACCUGAGCAACAGAGGAUUGAGCAUCA
B11: chr13:56191178:56191179:-_ENSMUSG00000015937_ENSMUST00000016081|mus_hu|FALSE|FALSE (ssRNA)
RNA: GGGAGUUCUACAGUCCGACGAUCUUUAAGGUCAAUGUCAGCAUUGGUAGGAUUGAUUAUGGCCUCCACCUCAAAGCCGGCUAAAUUACUGAUUUCACUGUGAAUAAGGUUCAGCUUCUGGCCAAGGAAGAGGCUCUUGGUGGACAACAGAGGAUUGAGCAUCA
B12: chr16:94690476:94690477:+_ENSMUSG00000040785_ENSMUST00000117648|mus_mus|FALSE|FALSE (ssRNA)
RNA: GGGAGUUCUACAGUCCGACGAUCAGAAAUGUAAUGUAUUCAAGGUUCACAUGUCUGUAUUUGCCACUGCCUACAGGUCACUAAAAAUACCUAGUUUUUGAAUAGUUUCUAAUACAGUUAGCUUGUUUUCAGGCCACAUUACAACAACAGAGGAUUGAGCAUCA
B13: chr10:22824096:22824097:-_ENSG00000150867_ENST00000376573|hu_hu|motif|central (ssRNA)
RNA: GGGAGUUCUACAGUCCGACGAUCGAAAUAAAUGACAGACUGUUUGUUAUAGACAAAAAUAAAAGCAUUCUGUAAACUUCGGAAAGCAUACACAGAUUGGCCCCCAAGGAAACAGUUACUCAAAUAAUGUAUGUGUACCUUAUCCAACAGAGGAUUGAGCAUCA
B14: chr18:67649703:67649704:-_ENSMUSG00000024533_ENSMUST00000115050|mus_mus|FALSE|FALSE (ssRNA)
RNA: GGGAGUUCUACAGUCCGACGAUCUGUUACUGUAUCUUAAUGAUGGUGAAAUGCGACUGGCAUGCCUUUUAUCAAAUGGAGAUGUCAUCAGUGGUGGUAAUGAGGGUGGUUUGUCAGAGCUUUCAGGAGUUACACUGUGCAUGUCAACAGAGGAUUGAGCAUCA
B15: chr2:48026839:48026840:+_ENSG00000116062_ENST00000540021|hu_hu|hu_hu_hu_mus_False|58_88 (ssRNA)
RNA: GGGAGUUCUACAGUCCGACGAUCAUAGUGAGCCACUAGCGUCCUAAAUCUCGAACAGUGGCGGUCAUCCGAAAACUGACCUAUGAAAAACUUGCCCAGUGAAGUGUCCACAAAGCAAACACCAUACACACGAGUGUGACCAGACAACAGAGGAUUGAGCAUCA
B16: chr2:119791414:119791415:+_ENSMUSG00000033943_ENSMUST00000110774|mus_hu|FALSE|FALSE (ssRNA)
RNA: GGGAGUUCUACAGUCCGACGAUCUACUUUACUGAAGGCUUGAAUUUGUUAAUUCUGAUUGAAAAGGUGAGGGAAUGGGAGCUACUUAGGAUAUGAAAAAAGAAAAUUUUACUGAAUGACACAAAGUCCUUCACUUUGGUAUUCCAACAGAGGAUUGAGCAUCA
B17: 151261739_151261965_2669_CDS_ENSG00000143373_ENST00000336715|human|control|control (ssRNA)
RNA: GGGAGUUCUACAGUCCGACGAUCCGGGCACUUAAAGACACUGACACGCUGGGGCAGCAAGUGCUGGUCGAAGUGUGAGGAGAGGAGGGGUUUGUGAGUGAAGACUGUGUCGCACAUGGCGCACUUGUAGAUCAGCUUGGCCUGCAACAGAGGAUUGAGCAUCA
B18: chr7:141441981:141441982:+_ENSG00000106028_ENST00000265304|hu_mus|hu_hu_hu_mus_False|38_58 (ssRNA)
RNA: GGGAGUUCUACAGUCCGACGAUCCUCAUGUCUUACAAACUGACGAAAUACCUGUAACACAGGUCUUCGAAACAUGGCUUCUAUUUUUCUUACAACCAGUCUAAUCUGCUUUUCCUAAAGGAAAGAAAGAAAAGAGAAAAAUGACAACAGAGGAUUGAGCAUCA
B19: chr8:74858975:74858976:-_ENSG00000154582_ENST00000284811|hu_mus|hu_hu_hu_mus_True|1_48 (ssRNA)
RNA: GGGAGUUCUACAGUCCGACGAUCGACCUUGUAGGUAAAAUACAUGCACACUUUUGAUAGCACAUGUGAGGGGAUCUCUCUAAAAUUGACCUCAUUGGUUUCAUUCUCAGCAAACUGACCUGGACCACUCAACAUAGCUUUUAUCAACAGAGGAUUGAGCAUCA
B20: chr19:60835742:60835743:+_ENSMUSG00000072437_ENSMUST00000088237|mus_mus|motif|central (ssRNA)
RNA: GGGAGUUCUACAGUCCGACGAUCUUCUGAAAAGGACUUUAUAGGAAAAAUAAAGUACAAAAAAGUAAAAAGCCGAUAAAACGGGCAAGUUUGGAUAGACAAAUGCAGGCUAAAGCACAGCACAACCUGUGCCUUUCUGCCCAUCAACAGAGGAUUGAGCAUCA
B21: chr2:97007812:97007813:+_ENSG00000121152_ENST00000240423|hu_mus|FALSE|FALSE (ssRNA)
RNA: GGGAGUUCUACAGUCCGACGAUCAGAAAGCUUGAUACAGGUAGAGUAAUGUUCUGUAAUCUGUGUGUUUGUAAACUUAGAUAUGGUAGUUGAAACAUCAAUAUUCCUGUUAGGGGAGGCCAGAUGAAUCGAAUCUGUACUGAACAACAGAGGAUUGAGCAUCA
B22: chr1:181699228:181699229:-_ENSMUSG00000026491_ENSMUST00000027768|mus_hu|FALSE|FALSE (ssRNA)
RNA: GGGAGUUCUACAGUCCGACGAUCAAUUUUAGAUAACACAUUGUUGAUGAAAACAGAUCUUGUCAACACAGUUCCUGUUACAACUUGCUUUGGAACUGCUGAUAAUGGUUUGGGUCUAGAAACUAAUCGAAAAACUGAUGAUGUCAACAGAGGAUUGAGCAUCA

target: T1, UNK ZnF1-3; experiment: nsRBNS (natural sequence RNA bind-n-seq); RBNS binding buffer (assumed for nsRBNS): 25 mM Tris pH 7.5, 150 mM KCl, 3 mM MgCl2, 0.01% Triton X-100, 500 ug/ml BSA, 20 U/ml SUPERase-In, 4 C; UNK is unkempt and MSI1 is Musashi-1; names of the RNAs are library labels; protein concentration not given here; high values mean tight binding

Binder	binding signal [enrichment R]
B1	0.364
B2	0.808
B3	0.721
B4	0.377
B5	0.737
B6	1.87
B7	0.752
B8	0.913
B9	1.19
B10	1.04
B11	0.963
B12	0.802
B13	1.28
B14	0.99
B15	1.1
B16	1.58
B17	1.39
B18	0.685
B19	0.889
B20	0.693
B21	1.12
B22	0.57
